Test results as given in PubChem BioAssay AID1508623 (National Center for Advancing Translational Sciences (NCATS), 2021).
The campaign covered roughly 48,000 compounds. About 450 (0.94%) were called active. Not shown: some 19% with an inconclusive outcome. The call rests on the fitted dose curve; in most records, active means well fitted inhibition curve with a large enough effect; inconclusive means small, poorly fitted or top-dose-only effect; inactive means no such curve, though single readings can be large or run the other way. The list shows a part of the results.

experiment: Primary qHTS for Identification of Small Molecule Inhibitors of Huntingtin Promoter Activity; details: HEK293 HTT promoter firefly luciferase reporter (activity 0% = vehicle and -100% = no light), 24 h; series mostly up to 57.5 µM; activity change, negative = inhibition: at the top concentration; further: nearly all actives have a fitted effect of over 50% in size
In short: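 Quantitative HTS used concentration series of up to 57.5 uM final on HEK293 luciferase reporter cells, 24 h at 37 degrees C. Readout was Dual-Glo firefly luminescence.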

Activity change, negative = inhibition, inactive:
CCCOc1ccc(C(=O)Nc2ccc(NC(=O)c3cccc(Cl)c3)cc2)cc1 -11.6%
COc1cccc(Nc2cc(-c3ccccc3)nc(C)n2)c1 23.7%
COc1ccc(NC(=O)c2c(NCc3cccc(OC)c3)sc3c2CCC3)cc1 -7.02%
Cc1cccc(Nc2ncnc3c2cnn3C)c1C -11.3%
Cc1ccc2c(c1)N(C(=O)N1CCC(C(=O)NC3CCCCCC3)CC1)CCO2 -23.2%
CN(C)c1ccc(-c2nc(-c3ccncc3)no2)cc1[N+](=O)[O-] 3.91%
COC(=O)c1ccc(NC(=O)CC2C(=O)N(c3ccccc3)C(=O)N2C2CCCC2)cc1 (stereo unspecified) -22.8%
COc1ccc(CC(=O)N2CC(=O)Nc3ccc(Br)cc3C2c2ccc(F)cc2)cc1OC (stereo unspecified) -17.3%
COc1cc2nc(NCc3ccccc3Cl)n3nc(-c4cccnc4)nc3c2cc1OC -10.4%
COc1ccc(Cn2c(C(=O)O)c(CNC3CCC(C)CC3)c3ccc(C)cc32)cc1 (stereo unspecified) -9.59%
COc1cc(C(=O)N2CCC(c3ccncc3)CC2)cc(OC)c1OC -18%
COc1cccc(CNC(=O)c2cc(-c3cccs3)nc3ccccc23)c1 -15.2%
COCCCNC(=O)CSc1nc2nc(C)c(Cc3ccccc3Cl)c(C)n2n1 -19.9%
Cn1nc(-c2ccccc2)c(-c2ccccc2)c(C(=O)Nc2ccc(S(N)(=O)=O)cc2)c1=O -10.6%
CCOc1ccc(NC(=O)CN2C(=O)CCSc3ccc(S(=O)(=O)N4CCCC4)cc32)cc1 -16.7%
O=C(NCC(c1cccnc1)N1CCOCC1)C(=O)Nc1cccc(Cl)c1 (stereo unspecified) -12.3%
COc1cccc(-n2cc(C(=O)NCCc3cccc(C)c3)c3ccccc3c2=O)c1 -14.8%
O=C(NCc1ccccc1Cl)C(=O)NCC(c1ccco1)S(=O)(=O)c1cccs1 (stereo unspecified) -26%
O=C(O)c1ccc(-n2nc(-c3ccccc3O)nc2-c2ccccc2O)cc1 -6.52%
COc1ccccc1CNC(=O)C1CCN(c2nn3c(=O)cc(C)nc3s2)CC1 -18.8%
CCC1CCCCN1CCCNC(=O)c1cc2c(Cl)nc3ccc(C)cc3c2s1 (stereo unspecified) -24.2%
COc1ccc(Cn2c(=O)c3oc4ccccc4c3n(CC(=O)Nc3cc(C)cc(C)c3)c2=O)cc1 4.09%
CCC1CCCCN1CCCNC(=O)c1ccc2c(c1)N(Cc1cccc(C)c1)C(=O)c1ccccc1S2(=O)=O (stereo unspecified) -17.3%
Cc1c2cnn(CC(=O)NCCc3ccccc3)c(=O)c2c(C)n1Cc1ccccc1Cl -2.57%
COc1cc(C(=O)NCC(c2ccc(N(C)C)cc2)N2CCCC2)cc(OC)c1OC (stereo unspecified) -1.88%
COc1ccc(/C=C(\C#N)c2nc(-c3ccc(Cl)c(Cl)c3)cs2)cc1OC -3.24%
CCOc1ccc(NC(=O)CSc2nc3nc(C)c(Cc4ccccc4)c(C)n3n2)cc1 -9.42%
CC(=O)c1ccc(NC(=O)CN2C(=O)c3cccnc3Sc3ccccc32)cc1 26%
CCc1ccc(NC(=O)CSc2nc(=O)n(Cc3cccnc3)c3c2CCC3)cc1 -89.9%
O=C(COc1ccccc1F)NC1CC(=O)N(c2ccc3c(c2)OCCO3)C1 (stereo unspecified) 2.32%
Cc1ccc(-c2nc3ccc(Br)cn3c2Nc2ccc3c(c2)OCO3)o1 33.6%
CCc1ccccc1NC(=O)CSc1nc2c(oc3ccccc32)c(=O)n1-c1ccccc1 -13.5%
CCOc1ccccc1CNS(=O)(=O)c1cnc(N)nc1 -2.14%
COc1ccccc1Cn1c(CNS(=O)(=O)c2ccc(Cl)s2)nc2cccnc21 -11.7%
CC(=O)c1cccc(NC(=O)Cn2cnc3c2c(=O)n(C)c(=O)n3C)c1 -16.6%
CCC(=O)N1CCc2cc(Br)cc(S(=O)(=O)N3CCCC(C(=O)Nc4ccc(CC)cc4)C3)c21 (stereo unspecified) -11.1%
CCOC(=O)c1cccc(NC(=O)Cc2ccc(NC(=O)N3CCCCc4ccccc43)cc2)c1 -15.5%
COc1ccc(-n2c(CCC(=O)O)ccc2-c2ccccc2)cc1 -8.98%
CCOC(=O)c1c(C)[nH]c(C)c1S(=O)(=O)N1CCCC(C(=O)N2CCN(c3ccc(Cl)cc3)CC2)C1 (stereo unspecified) -29.3%
Cc1nnc(N2CCN(c3ccccc3)CC2)c2c1nnn2Cc1ccc(F)cc1 -12.2%
O=C1Nc2c(c(=O)[nH]c(=O)n2-c2ccc(Cl)cc2)C1(NS(=O)(=O)c1ccccc1)C(F)(F)F (stereo unspecified) -2.33%
Cc1ccc(C)c(NC(=O)CCn2cnnn2)c1 -4.93%
O=C(Nc1ccc(F)cc1F)c1ccc(-c2ccccc2)s1 17.1%
Cc1ccc2nc(CSc3nnc(NC(=O)COc4ccccc4F)s3)cc(=O)n2c1 3.95%
COc1ccc(C)cc1N(CC(=O)N1CCC(C)CC1)S(=O)(=O)c1ccc(C)cc1 -22.6%
Nc1c(C(=O)c2ccc3c(c2)OCO3)sc(Nc2ccccc2F)c1S(=O)(=O)c1ccccc1 -26%
CCOC(=O)CSc1nc2sc3c(c2c(=O)n1CC)CCCC3 -12.6%
COc1ccc(C2CC(=O)c3cc(-c4nc(-c5cccc([N+](=O)[O-])c5)cs4)c(=O)n(-c4cc(C)cc(C)c4)c3C2)cc1 (stereo unspecified) 0.479%
O=C(CCCn1c(=O)c2sccc2n(Cc2c(F)cccc2Cl)c1=O)NCc1ccccc1 -2.09%
CCCC(=O)Nc1ccc2nn(-c3ccc(CC)cc3)nc2c1 38.4%
Cc1cnc2c(c1SCC(=O)N(C)c1ccccc1)c(=O)n(C)c(=O)n2C -6.57%
Cn1c(=O)c2c(-c3ccccc3Br)n(C(C)(C)C)cc2n(C)c1=O -24.4%
Cc1ccc(N2CCN(Cc3nnc(-c4ccc5c(c4)OCO5)o3)CC2)c(C)c1 -5.3%
Cc1cc(C)cc(NC(=O)CSCc2cc(=O)c3cc(Cl)ccc3[nH]2)c1 0.986%
CC1(C)CC(=O)c2cc(-c3nc(-c4ccc(Br)cc4)cs3)c(=O)n(-c3ccccc3)c2C1 -7.63%
Cc1c(-c2nc(-c3ccc4c(c3)[nH]c(=O)n4C)no2)cccc1[N+](=O)[O-] -13.2%
O=C1c2ccccc2-c2onc3c(Br)cc(NC4CCCCC4)c1c23 11.1%
CN1C(C(=O)Nc2ccccn2)=C(O)c2ccccc2S1(=O)=O
Cc1cccc(N2C(=O)CSC23C(=O)N(CC(=O)NCCc2ccccc2)c2ccccc23)c1 (stereo unspecified) -10.4%
COc1ccc(-c2cc(C(F)(F)F)n3nc(-c4ccc(Cl)cc4)cc3n2)cc1OC -4.87%
COCCNC(=O)CSc1nc2cc3c(cc2c(=O)n1CCCCCC(=O)NCCc1ccc(OC)c(OC)c1)OCO3 -11.8%
